Experimental data from paper PMC4336329 (PLoS ONE, 2015).
Among all 310,000 compounds or so, about 14,000 (4.5%) showed an effect of 50% or more. The effect is printed as a negative number. This is one part of the list.

The compounds below were run against human ether-à-go-go-related gene (hERG) potassium channel (human, UniProt Q12809) (assay: primary screen, population patch clamp on CHO cells stably expressing hERG).
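Note: peak tail current of the secondary pulse compared with the same well before compound.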

human ether-à-go-go-related gene (hERG) potassium channel, sequence (Q12809 whole entry, looked up): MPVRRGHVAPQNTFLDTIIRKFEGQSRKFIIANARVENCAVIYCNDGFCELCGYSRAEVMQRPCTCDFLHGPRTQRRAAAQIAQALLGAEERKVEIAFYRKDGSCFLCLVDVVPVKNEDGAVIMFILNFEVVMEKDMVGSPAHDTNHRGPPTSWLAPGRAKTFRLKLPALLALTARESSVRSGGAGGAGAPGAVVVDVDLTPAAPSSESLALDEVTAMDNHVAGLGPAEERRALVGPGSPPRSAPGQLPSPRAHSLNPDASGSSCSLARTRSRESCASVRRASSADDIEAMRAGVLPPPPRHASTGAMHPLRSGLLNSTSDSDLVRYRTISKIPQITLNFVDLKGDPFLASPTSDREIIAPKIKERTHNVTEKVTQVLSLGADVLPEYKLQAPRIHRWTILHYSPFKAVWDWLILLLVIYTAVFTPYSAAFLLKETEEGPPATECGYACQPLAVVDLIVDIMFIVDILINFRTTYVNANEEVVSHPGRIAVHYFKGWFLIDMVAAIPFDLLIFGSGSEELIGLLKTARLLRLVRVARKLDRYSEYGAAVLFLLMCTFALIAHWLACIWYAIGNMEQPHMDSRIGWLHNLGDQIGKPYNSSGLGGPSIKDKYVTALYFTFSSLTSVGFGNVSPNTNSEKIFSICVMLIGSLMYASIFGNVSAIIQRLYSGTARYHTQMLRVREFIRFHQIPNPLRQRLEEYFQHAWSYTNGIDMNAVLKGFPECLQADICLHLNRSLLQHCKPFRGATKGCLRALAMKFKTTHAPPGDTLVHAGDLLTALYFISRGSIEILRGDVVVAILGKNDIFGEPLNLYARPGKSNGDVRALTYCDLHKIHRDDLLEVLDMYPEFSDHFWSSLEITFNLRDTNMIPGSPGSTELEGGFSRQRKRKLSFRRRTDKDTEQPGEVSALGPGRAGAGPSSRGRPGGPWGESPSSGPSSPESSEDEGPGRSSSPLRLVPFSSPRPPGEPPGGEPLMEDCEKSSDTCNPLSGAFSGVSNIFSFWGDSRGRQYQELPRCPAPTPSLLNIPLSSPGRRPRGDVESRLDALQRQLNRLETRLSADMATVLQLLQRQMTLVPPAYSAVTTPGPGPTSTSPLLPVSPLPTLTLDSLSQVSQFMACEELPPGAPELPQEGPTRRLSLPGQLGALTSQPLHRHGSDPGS

SMILES	hERG current change (%, negative = inhibition) at 10uM
CCCCOC(=O)Nc1cccc(Cl)c1C	-15.6%
O=C(Nc1cccc(F)c1)NC1CCN(Cc2ccccc2)CC1	-56.4%
CCOC(=O)Cc1csc(NC(=O)c2ccc3ncsc3c2)n1	-1.68%
COc1ccc(CCN(Cc2ccc(C(C)C)cc2)S(=O)(=O)c2ccc(S(=O)(=O)N(C)C)cc2)cc1OC	-11.1%
COC(=O)NC(NC(=S)Nc1ccccc1OC)C(Cl)(Cl)Cl (centres unmarked)	4.28%
O=C(NNC(=O)C1CCCC1)c1cc([N+](=O)[O-])cc([N+](=O)[O-])c1	18.1%
C[N+]1(CC(=O)OCCCC2CCCCC2)CCCC1.[I-]	-8.31%
COc1ccc(C(O)(CC(C)C)C(CN2CCOCC2)c2ccccc2)cc1.Cl (centres unmarked)	-17.7%
COc1ccc(CC(=O)N(Cc2ccccc2)C(C)C)cc1	-0.0847%
Cc1ccc(OCC(=O)Nc2ccc(Cl)cc2)c(-n2nc3ccccc3n2)c1	17.2%
CCN1CCn2c3c(c4cc(C)ccc42)CCCC31 (centres unmarked)	-54.2%
O=c1/c(=C/c2ccccn2)sc2n1CN(c1ccccc1)CN=2	-1.38%
Cn1c(-c2ccc3c(c2)OCO3)cnc1NCc1cccc(O)c1.O=C(O)C(=O)O	-23.1%
CC(C)c1cccc(C(C)C)c1NC(=O)c1ccc(OCC(=O)NCc2ccccc2)cc1	-6.29%
O=C(COC(=O)c1ccco1)NC1CCCCC1	16.6%
COc1ccc(CNC(=O)C2CCN(S(=O)(=O)c3cccnc3)CC2)cc1	12.9%
CC1CN(C(=O)COC(=O)c2ccc(Cl)c(N)c2)CC(C)O1 (centres unmarked)	-3.05%
NC(=O)c1c(N)sc2c1CCCC2	-12.3%
O=C(O)CCC(=O)N1CCc2cc(S(=O)(=O)Nc3ccc4c(c3)OCCO4)ccc21	9.35%
CCOC(=O)C1CCCN(c2nc3ccccc3nc2C(C#N)C(=O)OCCOC)C1 (centres unmarked)	-66%
CN(C)c1cccc(C(=O)Nc2nnc(Cc3ccccc3)s2)c1	0.344%
CC(=O)c1sc(N/N=C\c2cccc(Br)c2)nc1C	13.2%

SMILES	hERG current change (%, negative = inhibition) at 10uM
O=C(COc1nncc2ccccc12)Nc1ccc(F)c(F)c1	31%
CCOC(=O)c1sc(/N=C/c2ccc(O)cc2O)cc1C	39.8%
COc1ccc(Br)cc1/C=N/NC(=O)CNC(=O)/C=C/c1ccccc1	14.1%
CCn1c(O)c(C(c2ccccn2)c2c(O)n(CC)c(=S)[nH]c2=O)c(=O)[nH]c1=S	13.1%
COC(=O)c1cn(C(=O)c2ccc(C)cc2C)c2ccccc12	12%
CCOC(=O)Cc1cc(=O)n2[nH]c(C)c(C#N)c2n1	7.91%
Cc1cc(C)cc(NC(=O)Oc2ccccc2N2CCCCC2)c1	11.2%
CCc1nc2sc3ccccc3c(=O)c2c(=O)n1CCOC	-16.8%
COc1ccccc1N1C(=O)C2C(C(=O)c3ccccc3)=NN(c3ccc(Br)cc3)C2C1=O (centres unmarked)	7.78%
Cn1ccc(NC(=O)c2ccc([N+](=O)[O-])cc2)n1	2.12%
CCCCN(CC)C(=O)Cn1ncc2c1-c1cc(C)ccc1OC2	-19.7%
COc1ccccc1CNC(=O)c1ccc2c(c1)OCO2	1.64%
Cc1ccc(-n2cc(C(=O)c3ccccc3O)cn2)cc1	19.8%
Cc1ccc(C(=O)NCCc2ccc(S(N)(=O)=O)cc2)cc1[N+](=O)[O-]	-3.81%
CC(=C\c1ccco1)/C=C1/SC(=S)N(CC(=O)O)C1=O	11.9%
Cc1cc(C)c(Nc2ncccc2C(=O)O)c(C)c1	12.6%
CCS(=O)(=O)N1CCC(C(=O)NCCN2CCN(Cc3ccccc3)CC2)CC1	2.07%
COc1cc(C(=O)NNC(=S)NC(=O)c2ccc3c(c2)OCO3)cc(OC)c1OC	4.12%
Cc1ccc(NC(=O)CSc2ccc3nnc(CCNC(=O)c4ccccc4)n3n2)c(C)c1	-18%
CC1CCCC(C)N1C(=O)COC(=O)C(Cc1ccccc1)NC(=O)c1cccs1 (centres unmarked)	0.924%
CCOc1ccc(C(=O)Nc2ccc3nc(N4CCN(CC)CC4)cc(C)c3c2)cc1	-23%
OCC1(Cc2ccc(Cl)cc2)CCN(Cc2ccc3nsnc3c2)CC1	-61.5%

SMILES	hERG current change (%, negative = inhibition) at 10uM
CC1OC(OC2C(Oc3c(-c4ccc(O)cc4)oc4cc(O)cc(O)c4c3=O)OC(COC3O[C@@H](C)[C@H](O)[C@@H](O)C3O)C(O)C2O)C(O)C(O)C1O (some centres unmarked)	16.8%
Cc1nn2c(-c3ccccc3)c(-c3ccccc3)nc2[nH]c1=O	1.36%
CCOC(=O)c1c(C)nc2sc3c(=O)n(-c4ccc(C)cc4)cnc3c2c1-c1ccc(OC)cc1	13.2%
COc1ccc2oc(C)c(C(=O)c3ccc([N+](=O)[O-])cc3)c2c1	-12.2%
CCN(CC)c1ccc(/C=N/N2CCN(c3ccccn3)CC2)cc1	15.1%
CCN(CC)C(=O)Cn1cc(C(=O)C(=O)NCCc2ccccc2)c2ccccc21	0.8%
Cc1cc2cc(CN(CCCO)S(=O)(=O)c3cccc4nsnc34)c(=O)[nH]c2cc1C	0.493%
COc1ccc(NC(=O)c2ccc(C)cc2)c(OC)c1	-6.01%
CN1CCN(C(=O)CSc2nc(-c3cccs3)ccc2C#N)CC1	-4.44%
Cc1ccc(-n2nc(C)cc2NC(=O)COc2cc(C)cc3oc(=O)c4c(c23)CCC4)cc1	7.84%
O=C(NNS(=O)(=O)c1ccccc1)c1cccc([N+](=O)[O-])c1	-1.72%
COCc1cc(C)n(CC(=O)NC(C)c2ccccc2)c(=O)c1C#N (centres unmarked)	8.02%
COc1ccc(N2C(=O)C(O)C2c2ccc(C)cc2)cc1 (centres unmarked)	3.71%
CCOc1ccc(NC2C=CS(=O)(=O)C2)cc1 (centres unmarked)	-35.1%
COc1ccc(C(=O)C(CN2CCCC2)c2ccccc2)cc1 (centres unmarked)	-34.7%
COCCn1c(N2CCN(c3ccccc3)CC2)nc2c1c(=O)n(C)c(=O)n2C	-16.4%
Brc1ccccc1Cn1cnc2ccccc21	-6.99%
O=C(N/N=C/c1ccc(-c2cccc([N+](=O)[O-])c2)o1)[C@H]1C[C@@H]1c1ccccc1	9.39%
O=C(NNC(=O)c1cc2cc3ccccc3nc2s1)c1cccc(Cl)c1	-9.64%
COC(=O)CSc1cc(SCC(=O)OC)c(C#N)c(SCC(=O)OC)c1	-3.35%
N#CC1=C(N)C(C#N)(C#N)C(c2cccnc2)C2COCC=C12 (centres unmarked)	-18.2%
Cc1cc(NC(=O)CSc2nc3c(c(-c4cccnc4)c2C#N)CCC3)no1	4.17%

SMILES	hERG current change (%, negative = inhibition) at 10uM
O=C(CSc1nc2ncccc2[nH]1)Nc1ccccc1-c1ccccc1	4.9%
COc1ccccc1OCCNC(=O)c1cc(SC)ccc1Cl	-5.27%
Cc1csc(NC(=O)C2CCN(S(=O)(=O)c3ccccc3F)CC2)n1	-3.04%
CCOC(=O)C(C)(C)C(=O)C(C)(C)C(O)c1ccccn1 (centres unmarked)	-6.78%
CCCCN(C(=S)NC(=O)c1cc(OC)c(OC)c(OC)c1)c1c(N)n(Cc2ccccc2)c(=O)[nH]c1=O	13.7%
CN1CCC(OC(=O)c2ccc(Cl)cc2Cl)CC1.Cl	-55.9%
O=C(CN1C(=O)c2cccc3cccc1c23)Nc1ccc(S(=O)(=O)N2CCOCC2)cc1	-9.06%
Cc1cccc(NC(=O)c2nc[nH]c2C(=O)N[C@@H](Cc2ccccc2)C(=O)OC(C)(C)C)c1	19.7%
COc1ccc(CN(C)C(=O)c2ccc(NS(=O)(=O)c3ccc(F)cc3)cc2)c(OC)c1	3.52%
CC(=O)OC(C)(C)C1Cc2cc3ccc(=O)oc3cc2O1 (centres unmarked)	16.4%
N#Cc1c(C(F)(F)F)cc(-c2cccs2)nc1SCC(=O)O	-5.3%
COc1ccc2[nH]cc(C(=O)CNc3nc(C)cs3)c2c1.I	-24.4%
COc1cc([C@@H]2C[C@H]3CN(c4ccccc4)C(=O)[C@]34CCCN24)cc(OC)c1OC	-32%
Br.CCCC(=O)Nc1ccc(-c2csc(N/N=C\c3ccncc3)n2)cc1	25.3%
CCOC(=O)c1[nH]c2ccc(OC)cc2c1C(SCC(=O)O)c1ccc(C(F)(F)F)cc1 (centres unmarked)	8.98%
O=C(CSc1nnc(CNC(=O)c2cccs2)o1)NCC1CCCO1 (centres unmarked)	8.14%
CCOc1ccc2nc(NC(=O)CSc3nc4cccnc4n3C)sc2c1	17.4%
CCC(C)(C(=O)NC1CCCCC1)N(CC1CCCO1)C(=O)Cc1cccs1 (centres unmarked)	2.49%
CN(C)c1ccc(N=Cc2cccn2C)cc1	23.6%
Cc1ccc(S(=O)(=O)N(C)c2ccc(C(=O)N3CCN(Cc4ccc5c(c4)OCO5)CC3)cc2)cc1	-44.1%
